Reference: PubChem BioAssay AID1476 (National Center for Advancing Translational Sciences (NCATS), 2009)
In all, about 200,000 compounds went through this assay and about 4,500 (2.2%) were called active. Inconclusive means that the source gave no clear call. Such entries were picked first, then a sample of the others. Calls come from the whole dose curve; as a rule, active = well fitted inhibition curve with a large enough effect; inconclusive = small, poorly fitted or top-dose-only effect, or effect the other way; inactive = flat fitted curve, though single readings scatter. A potency beside an inconclusive call is a rough fit, not a confirmed value.

What follows are molecules tested against Cruzipain (Trypanosoma cruzi) (UniProt P25779) (assay: qHTS Assay for Promiscuous and Specific Inhibitors of Cruzain (without detergent)). Conditions: purified cruzain, Z-FR-AMC fluorescence, no detergent.
Summary of the method: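 Detergent-free condition (0.00005% Triton X-100) in acetate buffer pH 5.5 with DTT. 1.5 nM enzyme and compound were pre-mixed 15 min, then 2 uM Z-FR-AMC substrate added; reaction progress from fluorescence change between first and third reads (60 s).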
Note: nearly all actives have a fitted effect of over 40% in size.
Potency is the fitted concentration of half-maximal effect; tags give direction and shape of the fitted curve.
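Throughout, for max response, negative = inhibition: plate controls were enzyme without inhibitor for no effect and buffer without enzyme for full effect.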

Chain of UniProt P25779 (P25779 whole entry, looked up): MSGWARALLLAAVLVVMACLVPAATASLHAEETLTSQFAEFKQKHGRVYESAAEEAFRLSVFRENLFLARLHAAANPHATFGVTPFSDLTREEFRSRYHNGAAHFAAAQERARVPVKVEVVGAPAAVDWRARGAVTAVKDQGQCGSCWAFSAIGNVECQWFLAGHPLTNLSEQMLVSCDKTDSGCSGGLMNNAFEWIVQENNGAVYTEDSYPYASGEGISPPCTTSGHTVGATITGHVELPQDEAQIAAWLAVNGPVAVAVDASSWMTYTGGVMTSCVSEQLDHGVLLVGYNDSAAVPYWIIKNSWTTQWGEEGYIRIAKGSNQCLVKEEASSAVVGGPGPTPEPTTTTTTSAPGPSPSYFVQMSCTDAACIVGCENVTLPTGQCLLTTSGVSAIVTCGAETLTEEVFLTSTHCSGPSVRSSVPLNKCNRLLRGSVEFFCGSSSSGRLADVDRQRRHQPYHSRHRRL

SMILES | Potency | max response, negative = inhibition
Cc1ccc(S(=O)(=O)c2cc3c(=O)n4cccc(C)c4nc3n(Cc3ccco3)c2=N)cc1C | inconclusive: 39.8 µM [activator, single point] | 
COc1cc2c(cc1NC(=O)c1ccc3c(c1)OCO3)oc1ccccc12 | inconclusive: 39.8 µM [inhibitor, single point] | 
COc1ccc(CCNC(=O)c2c(O)c3cccc4c3n(c2=O)CC4)cc1 | inconclusive: 39.8 µM [activator, single point] | 
O=C(Nc1ccc2c(c1)OCO2)c1ccc(N2CCCC2)c([N+](=O)[O-])c1 | active: 25.1 µM | 
COc1ccc(N2CCN(Cc3nc4c(c(=O)[nH]c(=O)n4C)n3Cc3ccc(Cl)cc3)CC2)cc1 | inconclusive: 25.1 µM [activator, partial curve] | 
COc1ccc(N2C(=O)[C@@H]3[C@H](C2=O)[C@H](C(=O)c2ccc(OC(C)=O)cc2)N2N=CC=C[C@@H]32)cc1 | inconclusive: 25.1 µM [activator, single point] | 
CCOc1ccc(C(=O)NCc2nc3cccnc3n2Cc2ccc(F)cc2)cc1OCC | inconclusive: 39.8 µM [activator, single point] | 
COc1ccc(C2C(C(N)=O)=C(C)Nc3nc(SCc4ccccc4Cl)nn32)cc1OC (stereo not drawn) |  | inactive: -3.28%
COC(=O)c1ccc(C(c2c(N)n(Cc3ccccc3)c(=O)n(C)c2=O)N2CCOCC2)cc1 (stereo not drawn) | inconclusive: 39.8 µM [activator, single point] | 
O=C(N/N=C/c1cn(-c2ccccc2)nc1-c1ccc(F)cc1)c1ccc(Br)o1 | inconclusive: 39.8 µM [inhibitor, single point] | 
CC(C)N(C(=O)c1ccc2nc(-c3ccccc3)c(-c3ccccc3)nc2c1)C(C)C | inconclusive: 39.8 µM [activator, single point] | 
O=C(c1ccc(CSCc2ccccc2F)o1)N1CCN(c2ccc(N3CCOCC3)nn2)CC1 | inconclusive: 31.6 µM [activator, single point] | 
CC(C)NC(=O)N1CC[C@@]2(CCCN(S(=O)(=O)c3ccccc3)C2)C1 |  | inactive: 5.25%
CC(=O)c1cn(CC(=O)Nc2ccc(C)cc2)c2ccccc12 | inconclusive: 39.8 µM [inhibitor, single point] | 
COc1ccc(OC)c(Nc2nc(N)nc(-c3cc4ccccc4o3)n2)c1 | inconclusive: 25.1 µM [activator, partial curve] | 
CC(=O)NN1C(=O)/C(=C/c2ccc(C(C)C)cc2)SC1=S | inconclusive: 31.6 µM [activator, single point] | 
O=C(COc1c(Cl)cc(Cl)cc1Cl)c1ccc(Cl)cc1 | inconclusive: 25.1 µM [inhibitor, single point] | 
COc1cc2[nH]c(=O)n(CCCCCC(=O)NCCc3c[nH]c4ccccc34)c(=O)c2cc1OC | inconclusive: 39.8 µM [activator, single point] | 
Cc1cc(OCCCC(=O)N2CCCCC2)cc(C)c1Cl | inconclusive: 39.8 µM [activator, single point] | 

SMILES | Potency | max response, negative = inhibition
COCCNC(=O)C1CCN(S(=O)(=O)c2ccc3c(c2)CCCN3C(C)=O)CC1 |  | inactive: 1.28%
CCOC(=O)c1cnc2c(c(C)nn2C)c1Oc1ccc(Cl)cc1 | inconclusive: 39.8 µM [activator, single point] | 
Cc1cc(-c2csc(NC(=O)c3ccc(S(=O)(=O)N(C)C)cc3)n2)c(C)n1-c1ccccc1 | active: 15.8 µM | 
COc1ccc(-c2nc3n(n2)C(c2ccc(OC)cc2)C(C(=O)Nc2cccnc2)=C(C)N3)cc1 (stereo not drawn) | inconclusive: 31.6 µM [activator, single point] | 
CCOC(=O)c1c(C)oc2nc(C)nc(NCC3CCN(Cc4ccc(Cl)cc4)CC3)c12 |  | inactive: -2.15%
O=C(NC1CCCC1)c1c[nH]c2ccc(S(=O)(=O)Nc3cccc(C(F)(F)F)c3)cc2c1=O | inconclusive: 39.8 µM [inhibitor, single point] | 
CC(C)c1ccc(C(=O)CSc2n[nH]c(-c3ccncc3)n2)cc1 | inconclusive: 39.8 µM [activator, single point] | 
CCOc1ccc(N2CC(c3nc(-c4cc(OC)c(OC)c(OC)c4)no3)CC2=O)cc1 (stereo not drawn) | inconclusive: 31.6 µM [activator, single point] | 
CCOC(=O)c1nn(-c2cccc(Cl)c2)c2nc(Nc3ccccc3)cc(=O)n12 | inconclusive: 20 µM [activator, partial curve] | 
Cc1ccc(C)c(NC(=O)C2CCCN(S(=O)(=O)c3c(C)noc3/C=C/N(C)C)C2)c1 (stereo not drawn) | inconclusive: 39.8 µM [activator, single point] | 
CCOc1cc(CNCc2ccncc2)cc(Br)c1OCc1ccccc1F |  | inactive: 0.107%
COc1cc(NC(=O)c2cccs2)c(C(=O)OCC(=O)NC(=O)NC(C)(C)C)cc1OC | inconclusive: 39.8 µM [activator, single point] | 
COc1ccc(/C=C/C(=O)OCC(=O)Nc2cccc(Oc3ccccc3)c2)c(OC)c1 | inconclusive: 39.8 µM [inhibitor, single point] | 
Cc1c(C(=O)N2CCCC2)oc2c1-c1nn(CC(=O)NCc3cccc(Br)c3)cc1CC2 | inconclusive: 25.1 µM [activator, partial curve] | 
O=C(OCN1C(=O)c2ccccc2C1=O)C1CCCCC1 |  | inactive: -26.2%
COC(=O)C/C=C/[C@@H](C)[C@@H](/C=N/OCC[C@@H]1C=C[C@H](OC(C)=O)[C@@H](COC(C)=O)O1)NS(=O)(=O)c1ccc(C)cc1 | inconclusive: 39.8 µM [activator, single point] | 
Cc1cc(NS(=O)(=O)c2ccc(NC(=O)Cc3cccs3)cc2)no1 |  | inactive: 2.09%
O=c1c2ccccc2nc(SCc2cc(F)cc3c2OCOC3)n1Cc1ccco1 | inconclusive: 39.8 µM [inhibitor, single point] | 
CCOc1ccccc1-c1nc(C(N)=O)c2[nH]c(=O)n(-c3ccc(F)cc3)c2n1 | inconclusive: 39.8 µM [activator, single point] | 
